Experimental data as given in PubChem BioAssay AID504466 (National Center for Advancing Translational Sciences (NCATS), 2011).
The whole screen tested about 330,000 compounds, of which about 4,200 (1.3%) were called active. This list was built around the results that the source calls inconclusive (neither active nor inactive); the mix of calls is not that of the screen. Calls come from the whole dose curve; as a rule, active = well fitted activation curve with a large enough effect; inconclusive = small, poorly fitted or top-dose-only effect; inactive = no such curve, though single readings can be large or run the other way. A potency beside an inconclusive call is a rough fit, not a confirmed value.
Potency is the fitted concentration of half-maximal effect; tags give direction and shape of the fitted curve.

Test: qHTS screen for small molecules that induce genotoxicity in human embryonic kidney (HEK293T) cells expressing luciferase-tagged ELG1; note: nearly all actives have a fitted effect of over 60% in size
Conditions: HEK293T ELG1-luciferase reporter, luminescence, 16 h; series mostly up to 46 µM
In short: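 Genotoxicity was scored as increased ELG1-luciferase reporter signal, measured by ONE-Glo luminescence (30 min, room temperature). Compound or vehicle exposure of the HEK293T reporter cells lasted 16 hr at 37°C.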
In the case of `Fc1ccc(Nc2nc(-c3cccnc3)cs2)cc1`, the Potency is reported as inconclusive: 8.2 µM [activator, partial curve]. With `C=C(C)CSc1nnc2n(N)c(=O)c3ccccc3n12` the Potency was inconclusive: 12.6 µM [activator, single point]. For `CC1(C)CC(=O)c2c(O)cc(OCc3ccc([N+](=O)[O-])cc3)cc2O1`, the Potency was inconclusive: 2.31 µM [activator, full curve, poor fit]. For `O=C(Nc1nccs1)c1ccc(COc2ccccc2Br)o1`, the Potency was inconclusive: 13 µM [activator, partial curve]. For `O=c1cccc2n1Cc1cc3ccccc3nc1-2`, the Potency was active: 20.6 µM. In the case of `O=C(NC1CC(=O)c2sccc21)c1ccc(Cl)cc1Cl` (configuration not stated), the Potency is reported as inconclusive: 23.1 µM [activator, single point]. With `COc1ccc(-c2nc3cc([N+](=O)[O-])ccc3o2)cc1` the Potency was inconclusive: 2.91 µM [activator, full curve]. In the case of `O=S(=O)(c1cccs1)N1CN(Cc2ccco2)c2nc3ccccc3nc21`, the Potency is reported as inconclusive: 23.1 µM [activator, partial curve, poor fit]. With `Nc1nc(Nc2cccc(Cl)c2)nc(NCCO)c1[N+](=O)[O-]` the Potency was inconclusive: 13 µM [activator, partial curve, poor fit]. In the case of `Cc1ccc(Nc2ncnc3sc(C)c(C)c23)cc1`, the Potency is reported as inconclusive: 20.6 µM [activator, single point]. With `CC(C)(C)c1ccc(-n2ncc3c2CCCC3NC(=O)c2cnccn2)cc1` (configuration not stated) the Potency was inconclusive: 32.6 µM [activator, partial curve, poor fit]. With `CCOc1ccc(NC(=O)CN(C)S(=O)(=O)c2cccs2)cc1` the Potency was inconclusive: 16.4 µM [activator, partial curve]. For `O=C(N/N=C/c1cccs1)c1ccc2nc[nH]c2c1`, the Potency was inconclusive: 25.9 µM [activator, partial curve, poor fit]. With `COc1ccc(OC)c(NC(=O)C2CC(=O)N(CCc3ccccc3)C2)c1` (configuration not stated) the Potency was inconclusive: 13 µM [activator, partial curve, poor fit]. For `COc1ccc(C(=O)Nc2ccc3ccccc3c2)c(OC)c1`, the Potency was active: 2.06 µM. With `CCOc1ccc(-c2ccc(SCC(=O)Nc3nnc(CC)s3)nn2)cc1` the Potency was inconclusive: 4.61 µM [activator, partial curve]. For `N/C(Cc1ccc(Cl)cc1Cl)=N\OC(=O)Cc1cccs1`, the Potency was “inactive”. For `O=C(CN1CCOCC1)Nc1nc2ccc(F)cc2s1`, the Potency was inconclusive: 18.4 µM [activator, single point]. For `Clc1cccc(Cl)c1COc1ccccc1CNn1cnnc1`, the Potency was “inactive”. For `CC(C)c1cc(C(N)=O)c(NC(=O)c2cccc(COc3ccc(Cl)cc3)c2)s1`, the Potency was active: 0.731 µM. With `Cc1ccc(S(=O)(=O)Nc2nc(C)c(C(=O)Nc3ccccc3)s2)cc1` the Potency was “inactive”. In the case of `O=C(NC1CCC(O)CC1)c1ccc(-c2ccc(Cl)cc2)o1` (configuration not stated), the Potency is reported as “inactive”. With `c1ccc(C2=NN(c3ccccc3)CC2)cc1` the Potency was inconclusive: 13 µM [activator, partial curve]. In the case of `CN(Cc1nc(C(c2ccccc2)c2ccccc2)no1)CC1COCCO1` (configuration not stated), the Potency is reported as inconclusive: 23.1 µM [activator, single point]. With `Clc1ccc(-c2cn3c(n2)-c2ccccc2C3)cc1Cl` the Potency was inconclusive: 1.03 µM [activator, full curve]. In the case of `CC(C)N(C(C)C)S(=O)(=O)c1ccc(N2CCc3ccccc3C2)nc1`, the Potency is reported as inconclusive: 18.3 µM [activator, single point]. In the case of `CCC(=O)Nc1cc2nn(-c3ccc(C)cc3)nc2cc1C`, the Potency is reported as inconclusive: 0.092 µM [activator, full curve, poor fit]. With `N#C/C(=C/c1cccs1)c1nc2ccccc2[nH]1` the Potency was inconclusive: 11.6 µM [activator, partial curve, poor fit]. With `CCC(C)NC(=O)CN1C(=O)NC2NC(=O)NC21` (configuration not stated) the Potency was “inactive”. With `CC(C)(C)c1ccc(-c2nc(NCc3cccnc3)c3ccccc3n2)cc1` the Potency was inconclusive: 23.1 µM [activator, partial curve, poor fit]. In the case of `CCOc1cc(C2NN=C(c3ccccc3)S2)ccc1OCc1ccc(F)cc1` (configuration not stated), the Potency is reported as active: 8.2 µM. For `O=C(NCc1ccco1)Nc1ccc(Br)cc1Cl`, the Potency was inconclusive: 10 µM [activator, partial curve, poor fit]. For `Cc1nn(C)c(C)c1C(C)NC(=O)c1cc(COc2ccc(F)c(F)c2)on1` (configuration not stated), the Potency was “inactive”. With `CCc1ccc(NC(=O)c2ccnc(C(C)(C)C)c2)cc1` the Potency was “inactive”. With `CC1CCCN(c2ncnc3c2cnn3-c2ccccc2)C1` (configuration not stated) the Potency was inconclusive: 0.411 µM [activator, full curve, poor fit]. In the case of `Cc1ccc(-c2cn(-c3ccccc3)c(=S)[nH]2)cc1C`, the Potency is reported as active: 3.26 µM. For `C=CCN(CC=C)C(=O)c1ccc(OC2CCN(S(=O)(=O)N(C)C)CC2)cc1`, the Potency was “inactive”. For `Cc1cccc(C(=O)N/N=C/c2ccc3c(c2)OCO3)n1`, the Potency was “inactive”. With `CSc1nc(SCC(=O)NC(c2ccccc2)c2ccccc2)c2c3c(sc2n1)CN(C)CC3` the Potency was inconclusive: 29.1 µM [activator, single point]. In the case of `O=C1c2ccccc2C(=O)N1CCSc1nncs1`, the Potency is reported as “inactive”. In the case of `Cc1ccn(-c2ccc([N+](=O)[O-])cc2)n1`, the Potency is reported as inconclusive: 32.6 µM [activator, partial curve, poor fit]. For `O=C(c1ccc(Br)cc1)N(c1ccccn1)C1CCCCC1`, the Potency was “inactive”. With `Cn1c(=O)[nH]c(=O)c2c1nc(N)n2Cc1ccccc1` the Potency was inconclusive: 32.6 µM [activator, partial curve, poor fit]. For `CC(=O)c1ccc(OCC(O)CN2CCN(Cc3ccc4c(c3)OCO4)CC2)cc1` (configuration not stated), the Potency was inconclusive: 32.6 µM [activator, single point]. In the case of `CC1(C)Cc2ccccc2-c2nnc(SCC(=O)N3CCN(c4ccccc4)CC3)n21`, the Potency is reported as “inactive”. For `O=C(Nc1ccc2cn[nH]c2c1)c1ccccc1F`, the Potency was inconclusive: 9.2 µM [activator, partial curve]. For `Cc1nc(-c2ccccc2Cl)sc1C(=O)/C=C/N(C)C`, the Potency was inconclusive: 23.1 µM [activator, partial curve, poor fit]. In the case of `COc1cccc(/C=C/C(=O)OCC(=O)c2ccccc2)c1OC`, the Potency is reported as inconclusive: 2.06 µM [activator, full curve]. For `C/C(=N\Nc1nc2c(s1)CCCC2)c1ccc(Cl)cc1`, the Potency was inconclusive: 13 µM [activator, partial curve, poor fit]. For `CC(C)c1ccc(N(CC(=O)NCCSC(C)(C)C)S(C)(=O)=O)cc1`, the Potency was inconclusive: 23.1 µM [activator, single point]. For `CCOC(=O)c1ccc2[nH]c3c(c2c1)CCCC3O` (configuration not stated), the Potency was inconclusive: 25.9 µM [activator, partial curve, poor fit]. With `COc1ccc(N=C2S/C(=C\c3ccc(C)s3)C(=O)N2CC(C)C)cc1` the Potency was “inactive”. In the case of `CCCc1c(C)c2ccc(OCC(C)=O)cc2oc1=O`, the Potency is reported as inconclusive: 8.2 µM [activator, partial curve]. For `O=C(Nc1ccc2[nH]ccc2c1)c1ccc(F)cc1`, the Potency was inconclusive: 2.06 µM [activator, partial curve]. In the case of `O=C(CCS(=O)(=O)Cc1ccccc1)Nc1ncc([N+](=O)[O-])s1`, the Potency is reported as inconclusive: 3.26 µM [activator, partial curve, poor fit]. For `COC(=O)c1c(C)[nH]c(C(=O)/C=C/c2cccc(Cl)c2)c1C`, the Potency was inconclusive: 20.6 µM [activator, partial curve, poor fit]. With `O=C(COC(=O)c1ccc(Cl)c(S(=O)(=O)N2CCCCC2)c1)NCCc1ccccc1` the Potency was “inactive”. With `CNC(=O)CSc1nc(N)c2c3c(sc2n1)CCC3` the Potency was inconclusive: 20.6 µM [activator, partial curve, poor fit]. In the case of `O=C(NCc1ccc(Cl)cc1)NCc1ccc(Cl)cc1`, the Potency is reported as inconclusive: 32.6 µM [activator, partial curve, poor fit]. With `Cc1ccc(N2C(=O)c3ccc(N)cc3C2=O)cc1` the Potency was active: 3.66 µM. For `Oc1ccc(N=Nc2ccc3c(c2)OCCO3)c2ncccc12`, the Potency was inconclusive: 6.51 µM [activator, partial curve, poor fit]. With `COc1ccc2c(c1)OC[C@H]1[C@H]2N2C(=O)c3cc(Cl)ccc3NC(=O)[C@@]2(C)[C@H]1c1ccccc1` the Potency was “inactive”. With `C[C@H]1CN=C(N(C)C)N1CCc1ccc(F)cc1` the Potency was “inactive”. For `O=C(CN1C(=O)NC2(CCc3ccccc32)C1=O)NCc1ccc(F)cc1` (configuration not stated), the Potency was “inactive”. With `Cc1ccc(/C=N/N2CCOCC2)s1` the Potency was inconclusive: 20.6 µM [activator, partial curve, poor fit]. For `O=C(c1cc2cc(Br)ccc2o1)N1CCCCC1`, the Potency was inconclusive: 16.4 µM [activator, partial curve]. With `CSCc1ccc(C(=O)Nc2ccc(C(N)=O)cc2)cc1` the Potency was active: 14.6 µM. With `COc1ccc(C(c2c(C)[nH]n(C(N)=S)c2=O)C(C#N)C#N)cc1` (configuration not stated) the Potency was inconclusive: 32.6 µM [activator, partial curve, poor fit]. In the case of `CCOCCOC(=O)c1[nH]c2c(c1C)C(=O)CC(c1ccccc1)C2` (configuration not stated), the Potency is reported as inconclusive: 2.31 µM [activator, full curve, poor fit]. In the case of `O=C(NC1CCN(c2ncccn2)CC1)c1ccccc1F`, the Potency is reported as “inactive”. For `CC(=O)c1ccc(N2CCN(C(=O)c3cc(-c4ccncc4)nc4ccc(Cl)cc34)CC2)cc1`, the Potency was “inactive”. In the case of `Cc1cccc(Cn2c(CN3CCN(Cc4ccccc4)CC3)nc3c2c(=O)[nH]c(=O)n3C)c1`, the Potency is reported as “inactive”.
